Consider 55 compounds from the supplement of paper PMC9446081.

SMILES strings stand for the structures. In all, about 39,000 compounds went through this assay and about 220 (0.56%) showed activity. This is one part of the list.
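Also: static incubation at 37 °C against the wild-type strain, values averaged over two biological replicates.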

For the assay, the system named is Escherichia coli K-12 BW25113. As to the kind of experiment: relative growth (OD600 normalised to plate interquartile mean) (fraction); higher = less growth inhibition, active = 0.2 or less. The conditions noted are these: 50 µM; LB; incubation time: overnight (16-24 h).
Turning to `C[C@H](CO)N1C[C@H](C)[C@@H](CN(C)Cc2ccc(Oc3ccccc3)cc2)Oc2ccc(NC(=O)C3CCCCC3)cc2CC1=O`, the relative growth is inactive: 1.

Regarding `COc1ccc(S(=O)(=O)Nc2cccc3c2O[C@H](CN(C)S(=O)(=O)c2cn(C)cn2)[C@@H](C)CN([C@H](C)CO)C3=O)cc1`, the relative growth was inactive: 1.01.

For the compound `Nc1nc(=O)c2c([nH]1)NC[C@H](CNc1ccc(C(=O)N[C@@H](CCC(=O)O)C(=O)O)cc1)N2C=O`, the relative growth is inactive: 0.993.

With `COc1ccc(NC(=O)N(C)C[C@H]2Oc3ncc(C#C[C@@H](C)O)cc3C(=O)N([C@H](C)CO)C[C@@H]2C)cc1`, the relative growth was inactive: 0.961.

As to `Cc1ccc(S(=O)(=O)Nc2ccc3c(c2)C(=O)N([C@@H](C)CO)C[C@H](C)[C@H](CN(C)C(=O)c2ccccc2)OCCCC[C@@H](C)O3)cc1`, the relative growth is inactive: 0.983.

Regarding `C[C@H]1CN([C@@H](C)CO)C(=O)Cc2cc(NC(=O)Nc3ccc4c(c3)OCO4)ccc2O[C@@H]1CN(C)C(=O)Nc1ccc(C(F)(F)F)cc1`, the relative growth was inactive: 1.03.

For the compound `C[C@@H]1CN([C@H](C)CO)C(=O)Cc2cc(NC(=O)NC3CCCCC3)ccc2O[C@@H]1CN(C)S(=O)(=O)c1cn(C)cn1`, the relative growth was inactive: 0.996.

Take `C[C@@H]1CCCCO[C@H](CN(C)CC2CC2)[C@@H](C)CN([C@H](C)CO)C(=O)c2cc(NS(=O)(=O)c3ccc(Cl)cc3)ccc2O1`: the relative growth is inactive: 0.996.

For `Cc1noc(C)c1S(=O)(=O)Nc1cccc2c1O[C@H](CN(C)Cc1ccc(-c3ccccc3)cc1)[C@H](C)CN([C@@H](C)CO)C2=O`, the relative growth was inactive: 1.05.

For `CC(C)C(=O)NCc1ccnc(N(C)C)n1`, the relative growth is inactive: 0.993.

Turning to `CC[C@H](NC(=O)[C@H](C)NC)C(=O)N1C[C@@H](O)C[C@H]1Cc1c(-c2[nH]c3cc(F)ccc3c2C[C@@H]2C[C@H](O)CN2C(=O)[C@H](CC)NC(=O)[C@H](C)NC)[nH]c2cc(F)ccc12`, the relative growth was inactive: 0.889.

Consider `C=CC[C@@H](CC(=O)N(CCO)Cc1ccccc1)C(=O)N[C@@H](COC(=O)[C@@H](CC=C)CC(=O)OC(C)(C)C)Cc1c[nH]c2ccccc12`, for which the relative growth was inactive: 1.07.

For `C[C@@H]1CN([C@H](C)CO)C(=O)c2cc(NC(=O)CCCN(C)C)ccc2O[C@H]1CN(C)Cc1ccc(C(=O)O)cc1`, the relative growth was inactive: 0.997.

As to `CO[C@@H]1CN(C)C(=O)c2ccc(NS(C)(=O)=O)cc2OC[C@@H](C)N(C(=O)C2CCOCC2)C[C@@H]1C`, the relative growth was inactive: 0.981.

Consider `C[C@@H]1CCCCO[C@H](CN(C)C(=O)NC2CCCCC2)[C@H](C)CN([C@@H](C)CO)C(=O)c2cc(NC(=O)Nc3ccccc3)ccc2O1`, for which the relative growth was inactive: 1.01.

As for `Cc1noc(C)c1S(=O)(=O)N(C)C[C@H]1Oc2ccc(NS(C)(=O)=O)cc2CC(=O)N([C@H](C)CO)C[C@@H]1C`, the relative growth was inactive: 1.02.

Turning to `CN1C(=O)c2cc(NS(C)(=O)=O)ccc2OC[C@@H]2O[C@@H](CC(=O)N3CCOCC3)CC[C@@H]21`, the relative growth is inactive: 0.992.

`C[C@H](CO)N1C[C@H](C)[C@H](CN(C)S(C)(=O)=O)Oc2c(NC(=O)Nc3ccc(C(F)(F)F)cc3)cccc2C1=O`: the relative growth is inactive: 0.982.

For the compound `C[C@@H]1CN([C@@H](C)CO)C(=O)c2cc(Br)cnc2O[C@@H]1CN(C)C(=O)Nc1ccc(F)cc1`, the relative growth was inactive: 1.01.

Regarding `C[C@@H]1CCCCO[C@@H](CN(C)C(=O)Nc2ccccc2)[C@H](C)CN([C@@H](C)CO)C(=O)c2cc(NS(=O)(=O)c3cccs3)ccc2O1`, the relative growth is inactive: 1.02.

As for `C[C@@H]1CN([C@@H](C)CO)C(=O)c2cc(C#Cc3ccccc3F)cnc2O[C@H]1CN(C)C(=O)Cc1ccncc1`, the relative growth was inactive: 0.976.

In the case of `CC(C)CC(NC(=O)C(C)NC(=O)CNC(=O)C(NC=O)C(C)C)C(=O)NC(C)C(=O)NC(C(=O)NC(C(=O)NC(C(=O)NC(Cc1c[nH]c2ccccc12)C(=O)NC(CC(C)C)C(=O)NC(Cc1c[nH]c2ccccc12)C(=O)NC(CC(C)C)C(=O)NC(Cc1c[nH]c2ccccc12)C(=O)NC(CC(C)C)C(=O)NC(Cc1c[nH]c2ccccc12)C(=O)NCCO)C(C)C)C(C)C)C(C)C` (stereo not given) [GRAMICIDIN (gramicidin A shown)], the relative growth is inactive: 0.896.

Consider `COc1ccc(NC(=O)N(C)C[C@@H]2OCCCC[C@@H](C)Oc3ccc(NS(=O)(=O)c4ccc(OC)cc4)cc3C(=O)N([C@H](C)CO)C[C@H]2C)cc1`, for which the relative growth is inactive: 1.03.

`C[C@@H]1CCCCO[C@H](CN(C)C(=O)Nc2ccc3c(c2)OCO3)[C@@H](C)CN([C@H](C)CO)C(=O)c2cc(NC(=O)Nc3ccccc3)ccc2O1`: the relative growth was inactive: 0.999.

On to `C[C@@H]1CCCCO[C@H](CN(C)Cc2ccc(C(F)(F)F)cc2)[C@@H](C)CN([C@@H](C)CO)C(=O)c2cc(NC(=O)NC3CCCCC3)ccc2O1`, for which the relative growth is inactive: 0.973.

`C[C@@H]1CN([C@@H](C)CO)C(=O)Cc2cc(NC(=O)Nc3ccc(C(F)(F)F)cc3)ccc2O[C@H]1CN(C)C(=O)NC1CCCCC1`: the relative growth was inactive: 0.981.

`C[C@@H]1CN([C@@H](C)CO)C(=O)c2c(c3ccccc3n2C)-c2ccccc2CO[C@@H]1CN(C)C(=O)c1ccc(F)cc1`: the relative growth was inactive: 1.03.

In the case of `C[C@@H]1CN([C@H](C)CO)C(=O)Cc2cc(NC(=O)Nc3ccc(C(F)(F)F)cc3)ccc2O[C@@H]1CN(C)C(=O)Nc1ccc(C(F)(F)F)cc1`, the relative growth is inactive: 1.04.

Consider `C[C@H](CO)N1C[C@H](C)[C@@H](CN(C)Cc2ccc(C(F)(F)F)cc2)Oc2ccc(NC(=O)Nc3ccccc3)cc2C1=O`, for which the relative growth is inactive: 1.02.

Regarding `COc1ccc(NC(=O)Nc2ccc3c(c2)C(=O)N([C@H](C)CO)C[C@@H](C)[C@@H](CN(C)Cc2ccc(Cl)c(Cl)c2)O3)cc1`, the relative growth is inactive: 1.03.

For the compound `C[C@H](CO)N1C[C@H](C)[C@H](CN(C)Cc2ccc(C(=O)Nc3ccccc3N)cc2)Oc2ccc(NC(=O)Cn3cnnn3)cc2CC1=O`, the relative growth is inactive: 0.959.

Take `C[C@@H]1CN([C@@H](C)CO)C(=O)c2cc(NC(=O)CCC(F)(F)F)ccc2O[C@@H](C)CCCCO[C@H]1CN(C)Cc1ccncc1`: the relative growth was inactive: 0.965.

`C[C@@H]1CN([C@H](C)CO)C(=O)c2cccc(NC(=O)c3cnccn3)c2O[C@@H]1CN(C)S(=O)(=O)c1ccc(Cl)cc1`: the relative growth was inactive: 1.02.

In the case of `C[C@H]1CN([C@@H](C)CO)C(=O)c2cc(NS(=O)(=O)c3cn(C)cn3)ccc2O[C@@H]1CN(C)C(=O)Nc1ccc(F)cc1`, the relative growth was inactive: 0.995.

Consider `Cc1csc2c(N3CCC(Cn4cc(C(C)(C)N)nn4)CC3)ncnc12`, for which the relative growth was inactive: 0.995.

As for `C[C@H]1CCCCO[C@@H](CN(C)S(=O)(=O)c2cn(C)cn2)[C@@H](C)CN([C@@H](C)CO)C(=O)c2cc(NC(=O)Nc3ccc(C(F)(F)F)cc3)ccc2O1`, the relative growth is inactive: 1.03.

Turning to `COc1ccc(S(=O)(=O)Nc2ccc3c(c2)C(=O)N([C@H](C)CO)C[C@@H](C)[C@H](CN(C)S(=O)(=O)c2ccc(Cl)cc2)OCCCC[C@H](C)O3)cc1`, the relative growth was inactive: 1.03.

With `Cc1noc(C)c1S(=O)(=O)N(C)C[C@@H]1OCc2cnnn2CCCC(=O)N([C@H](C)CO)C[C@@H]1C`, the relative growth was inactive: 1.01.

Turning to `COc1ccc(NC(=O)Nc2cccc3c2O[C@H](CN(C)C(=O)Nc2cccc4ccccc24)[C@@H](C)CN([C@@H](C)CO)C3=O)cc1`, the relative growth was inactive: 1.03.

Turning to `COc1cc(O)c2c(c1)C(=O)c1cc(C)cc(O)c1C2=O`, the relative growth is inactive: 0.982.

Consider `C[C@H]1CN([C@@H](C)CO)C(=O)c2cccc(NC(=O)c3nc4ccccc4s3)c2O[C@H]1CN(C)C(=O)Nc1ccc(F)cc1`, for which the relative growth is inactive: 1.04.

Regarding `Nc1nc(Cl)nc2c1ncn2[C@H]1C[C@@H](O)[C@@H](CO)O1`, the relative growth is inactive: 0.961.

For `CC(=O)N1CCc2nc(C(N)=O)sc2CC1`, the relative growth is inactive: 1.01.

In the case of `C[C@H](CO)N1C[C@H](C)[C@H](CN(C)Cc2ccc(Oc3ccccc3)cc2)Oc2ccc(NC(=O)Nc3ccc4c(c3)OCO4)cc2CC1=O`, the relative growth was inactive: 1.04.

As to `O=C(C[C@@H]1C[C@H]2c3cc(NS(=O)(=O)c4ccccc4)ccc3O[C@H]2[C@H](CO)O1)NC1CCCCC1`, the relative growth was inactive: 1.

As for `Cc1noc(C)c1NC(=O)Nc1ccc2c(c1)C(=O)N([C@@H](C)CO)C[C@@H](C)[C@@H](CN(C)C(=O)Nc1ccc(F)cc1)OCCCC[C@@H](C)O2`, the relative growth was inactive: 1.01.

In the case of `COCCNC(=O)C[C@@H]1CC[C@H]2[C@@H](COC[C@H](O)CN2S(=O)(=O)c2ccccc2C)O1`, the relative growth was inactive: 0.98.

For `C[C@@H]1CCCCO[C@@H](CN(C)S(=O)(=O)c2cccs2)[C@H](C)CN([C@@H](C)CO)C(=O)c2cc(NC(=O)Nc3cccc4ccccc34)ccc2O1`, the relative growth was inactive: 1.03.

Turning to `CCOC(=O)n1ccn(C)c1=S`, the relative growth was inactive: 1.09.

As for `COCC(=O)NS(=O)(=O)c1ccccc1`, the relative growth was inactive: 1.01.

Consider `C[C@H](CO)N1C[C@H](C)[C@H](CN(C)S(=O)(=O)c2ccc(C#N)cc2)Oc2ncc(C#Cc3ccc(F)cc3)cc2C1=O`, for which the relative growth is inactive: 0.98.

`COc1ccc(CN(C)C[C@H]2Oc3ccc(NS(=O)(=O)c4cn(C)cn4)cc3C(=O)N([C@@H](C)CO)C[C@@H]2C)cc1`: the relative growth was inactive: 1.01.

Regarding `CCOC(=O)c1cc2c(c(-c3cccc(-c4cccc(OC)c4)c3)n1)[C@H](CCO)N(S(=O)C(C)(C)C)C2` (stereo not given in full), the relative growth was inactive: 1.03.

For `C[C@H]1CCCCO[C@@H](CN(C)CC2CCCCC2)[C@@H](C)CN([C@@H](C)CO)C(=O)c2cc(NC(=O)Nc3cccc4ccccc34)ccc2O1`, the relative growth is inactive: 0.969.

As for `Cc1noc(C)c1S(=O)(=O)N(C)C[C@@H]1Oc2ccc(NS(=O)(=O)c3ccc(F)cc3)cc2CC(=O)N([C@@H](C)CO)C[C@H]1C`, the relative growth is inactive: 1.01.
